Results on one molecule are retold here after PMC9340718 (Signal Transduction and Targeted Therapy, 2022).

This experiment has as its target ACE2-His fusion protein (human, UniProt Q9BYF1). Briefly: BLI; Octet RED96; ACE2-His (10 μg/mL) captured on Ni-NTA biosensors; APOE3 or APOE4 at 62.5-1000 nM; SD buffer (PBS pH 7.4, 0.05% Tween 20, 0.01% BSA), 30 °C, 1000 rpm; 1:1 binding model. Conditions: both partners purified. On the technique in general: BLI is a label-free optical method that tracks binding on a fibre tip over time.
UniProt Q9BYF1, sequence (Q9BYF1 18-740): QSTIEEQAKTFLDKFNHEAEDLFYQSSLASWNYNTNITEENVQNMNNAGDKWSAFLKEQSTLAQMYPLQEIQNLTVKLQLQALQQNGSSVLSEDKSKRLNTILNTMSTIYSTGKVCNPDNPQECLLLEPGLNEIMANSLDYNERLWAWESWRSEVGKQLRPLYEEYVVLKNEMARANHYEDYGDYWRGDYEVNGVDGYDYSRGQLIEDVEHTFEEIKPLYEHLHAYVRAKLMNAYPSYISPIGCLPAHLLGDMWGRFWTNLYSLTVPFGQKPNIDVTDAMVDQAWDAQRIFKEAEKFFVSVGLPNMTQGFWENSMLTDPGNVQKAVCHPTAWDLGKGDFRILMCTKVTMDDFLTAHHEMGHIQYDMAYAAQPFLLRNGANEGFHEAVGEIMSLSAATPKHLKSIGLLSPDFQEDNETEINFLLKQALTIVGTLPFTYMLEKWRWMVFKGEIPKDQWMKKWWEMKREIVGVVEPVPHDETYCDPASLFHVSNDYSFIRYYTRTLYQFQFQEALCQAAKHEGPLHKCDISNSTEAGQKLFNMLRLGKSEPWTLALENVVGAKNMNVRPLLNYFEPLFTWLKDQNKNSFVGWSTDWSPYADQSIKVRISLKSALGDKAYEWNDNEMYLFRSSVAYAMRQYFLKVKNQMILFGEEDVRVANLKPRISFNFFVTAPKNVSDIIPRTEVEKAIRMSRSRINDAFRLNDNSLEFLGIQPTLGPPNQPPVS

B1: recombinant human APOE4 protein (natural protein)
chain: not shown
notes: also called recombinant APOE4
As to B1, the Kd (as a rule, the free concentration of one partner at which half of the binding sites on the other are occupied at equilibrium, for simple one-to-one binding) came out at 190 ± 2.23 nM.
